Assay results: PMC4336329 (PLoS ONE, 2015)
In all, about 310,000 compounds went through this assay and about 14,000 (4.5%) showed an effect of 50% or more. The effect is printed as a negative number. The list shows a part of the results.

Biological target: human ether-à-go-go-related gene (hERG) potassium channel (human, UniProt Q12809)
Test: primary screen, population patch clamp on CHO cells stably expressing hERG
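Note: peak tail current of the secondary pulse compared with the same well before compound.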

human ether-à-go-go-related gene (hERG) potassium channel, sequence (Q12809 whole entry, looked up): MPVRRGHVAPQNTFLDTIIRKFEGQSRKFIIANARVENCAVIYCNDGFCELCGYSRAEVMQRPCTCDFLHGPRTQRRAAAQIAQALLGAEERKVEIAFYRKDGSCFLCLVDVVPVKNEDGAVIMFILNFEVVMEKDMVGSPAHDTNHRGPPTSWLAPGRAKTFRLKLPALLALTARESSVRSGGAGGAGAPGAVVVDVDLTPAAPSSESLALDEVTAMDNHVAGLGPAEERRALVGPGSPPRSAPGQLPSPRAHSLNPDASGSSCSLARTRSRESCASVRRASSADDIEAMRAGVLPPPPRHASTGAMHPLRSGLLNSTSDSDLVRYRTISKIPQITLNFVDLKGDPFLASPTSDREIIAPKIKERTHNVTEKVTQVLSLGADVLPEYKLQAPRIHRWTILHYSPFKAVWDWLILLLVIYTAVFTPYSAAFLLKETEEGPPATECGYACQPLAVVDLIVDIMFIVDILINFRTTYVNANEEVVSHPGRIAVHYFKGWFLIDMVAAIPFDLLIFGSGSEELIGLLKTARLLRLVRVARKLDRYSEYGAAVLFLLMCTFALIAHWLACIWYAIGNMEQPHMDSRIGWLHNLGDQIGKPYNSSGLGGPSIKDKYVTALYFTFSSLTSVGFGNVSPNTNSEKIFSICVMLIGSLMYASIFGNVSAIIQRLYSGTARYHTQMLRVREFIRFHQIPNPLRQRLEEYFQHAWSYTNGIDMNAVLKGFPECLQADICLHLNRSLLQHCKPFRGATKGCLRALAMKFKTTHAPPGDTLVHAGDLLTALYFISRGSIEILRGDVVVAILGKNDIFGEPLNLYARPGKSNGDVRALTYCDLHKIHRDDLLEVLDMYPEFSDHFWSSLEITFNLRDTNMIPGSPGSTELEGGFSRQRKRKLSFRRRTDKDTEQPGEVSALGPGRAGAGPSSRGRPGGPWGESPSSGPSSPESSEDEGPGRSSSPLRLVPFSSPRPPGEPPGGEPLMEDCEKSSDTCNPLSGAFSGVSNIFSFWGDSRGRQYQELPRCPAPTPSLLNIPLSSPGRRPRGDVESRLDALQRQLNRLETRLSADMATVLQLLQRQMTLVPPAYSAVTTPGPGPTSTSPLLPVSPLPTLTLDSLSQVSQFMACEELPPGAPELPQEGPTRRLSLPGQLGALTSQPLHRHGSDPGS

Row | SMILES | hERG current change (%, negative = inhibition) at 10uM [%]
1 | COc1ccc(Cl)cc1NC(=O)CN(C)Cc1ccc(OC)c(OC)c1 | -9.72
2 | CCCCN(CCCC)S(=O)(=O)c1ccc(N2CCCC2=O)c([N+](=O)[O-])c1 | -1.42
3 | O=C(Nn1cnnc1)c1ccc([N+](=O)[O-])cc1Cl | 8.54
4 | CCN(C(=O)COC(=O)c1[nH]c(C)c(C(C)=O)c1C)C1CCS(=O)(=O)C1 (stereo not drawn) | -8.32
5 | COc1ccc(C2=NCCn3cccc32)c(OC)c1 | -49.2
6 | O=C(CSc1nccc(=O)[nH]1)N1c2ccccc2CCc2ccccc21 | 4.63
7 | N#C/C(=C\c1ccc(-c2cccc([N+](=O)[O-])c2)o1)c1nnc(N2CCOCC2)n1-c1ccccc1 | -31.2
8 | Cl.O=C(CSc1nc2ccccc2[nH]1)N1CCN(C(=O)c2ccco2)CC1 | -23.4
9 | CC(C)NP(=O)(NC(C)C)OP(=O)(NC(C)C)NC(C)C | -0.00312
10 | COC(=O)c1ccc(NC(=O)c2cn(-c3ccccc3)nc2-c2ccncc2)cc1 | -10.2
11 | CCc1nnc(SCc2ccc(C(=O)OC)o2)n1N.Cl | 12
12 | O=S(=O)([N-]c1nc2ccccc2nc1-[n+]1ccccc1)c1ccc(F)cc1 | 8.09
13 | C=CCOC(=O)CCCC(=O)NC1CCCCC1 | -4.26
14 | COc1cc(OC)cc(C(=O)N[C@H](C(=O)NCCc2c[nH]c3ccccc23)C(C)C)c1 | 10.1
15 | CC(Oc1ccccc1F)C(=O)NNC(=O)CCS(=O)(=O)c1ccccc1Cl (stereo not drawn) | -19.2
16 | Cc1cc2occ(CC(=O)Nc3nnc(C4CC4)s3)c2cc1C | 12.2
17 | CCN1CCN(S(=O)(=O)c2ccc(Cl)c(C(=O)N(C)Cc3ccccc3)c2)CC1 | -28.8
18 | Cc1cc(C)n2nc(C(=O)OCC(=O)NC(=O)c3ccccc3)nc2n1 | 14.5
19 | CCOC(=O)N1CCN(S(=O)(=O)/C=C/c2ccccc2)CC1 | -17.5
20 | CNC(=O)/C(C#N)=C1\SC(Cc2ccc(F)cc2)C(=O)N1c1ccccc1C (stereo not drawn) | -3.88
21 | O=C(COc1ccc(Br)cc1)Nc1nnc(C2CC2)s1 | -4.14

Row | SMILES | hERG current change (%, negative = inhibition) at 10uM [%]
22 | C[N+](C)(C)CC(=O)N1CCN(c2ccc3ccccc3n2)CC1.[Cl-] | 20.6
23 | CCn1ncc(Br)c1C(=O)Nc1ccc(F)c([N+](=O)[O-])c1 | -8.54
24 | Cc1ccc(Nc2nc(N)nc(CSc3nccn3C)n2)c(C)c1 | 6.3
25 | CC(OC(=O)CNC(=O)C12CC3CC(CC(C3)C1)C2)C(=O)Nc1ccc(S(N)(=O)=O)cc1 (stereo not drawn) | 9.83
26 | CCO[C@H]1OC(C(=O)N2CCN(Cc3ccccc3)CC2)=C[C@@H](c2cn(C(C)=O)c3ccccc23)[C@@H]1CCCO | -54
27 | O=C1NN(c2ccccc2)C(=O)/C1=C/c1ccc(-c2cccc(C(=O)O)c2)o1 | 9.63
28 | Cc1ccccc1C1=NCC(=O)N(CC(=O)N2CCCCC2)c2sc(C)c(C)c21 | -19.3
29 | CCCCCn1c(SCC(=O)OCC)nc2cc(C(=O)NCc3ccco3)ccc2c1=O | 2.51
30 | CC(=O)Nc1ccc(S(=O)(=O)N2CCN=C2SCc2ccc(C)cc2)cc1 | -12
31 | Cc1cc(OCCn2cnc3ccccc3c2=O)cc(C(C)C)c1 | -8.11
32 | Cc1ccc(C2=C(c3ccc([N+](=O)[O-])cc3)C(=O)OC2)cc1C | -45.7
33 | CCCn1c2ccccc2c2cnn(CC(=O)NCCCN3CCCCC3)c(=O)c21 | -53.4
34 | c1ccc(Nc2ccccc2)cc1 | 3.63
35 | CC(=O)c1cccc(N=Nc2c(-c3ccccc3)[nH]n(-c3ccccc3)c2=O)c1 | 33.7
36 | Cc1ccccc1C(=O)NC(=S)NCCC1=CCCCC1 | 13.4
37 | CCCCOc1ccc(N(CC(=O)NC(C)(C)C)C(=O)CCC(=O)Nc2nccs2)cc1 | 3.69
38 | CCN(CC(=O)Nc1ccc2c(c1)OCCO2)c1ccc(S(=O)(=O)N2CCOCC2)cn1 | 0.9
39 | Cc1ccc(-c2ccc(=O)n(CCC(=O)N3CCN(c4cccc(C)c4)C(C)C3)n2)cc1 (stereo not drawn) | -18.2
40 | COc1ccc(OC)c(CCNC(=O)Cn2ccc3cc(S(=O)(=O)N4CCCC4)ccc32)c1 | -13.9
41 | CCc1nnc(NC(=O)c2ccc(-c3ccc(F)cc3)o2)s1 | 8.98
42 | COc1ccccc1NCC(=O)N/N=C(\C)c1cccs1 | 6.3

Row | SMILES | hERG current change (%, negative = inhibition) at 10uM [%]
43 | Cc1nc(N2CCC(C)CC2)c2c(C)c(C(=O)Nc3cc(F)ccc3C)sc2n1 | 9.74
44 | CS/C(=N\S(=O)(=O)c1cccs1)Nc1ccc(N2CCOCC2)cc1 | -12.3
45 | COCCn1c(N)c(C(=O)NCc2cccs2)c2nc3ccccc3nc21 | 6.25
46 | O=C(O)c1cn(Cc2ccccc2)c2ccc(Cl)cc2c1=O | -76.3
47 | O=C1OC(c2ccccc2)=NC12CC2c1ccc(Cl)cc1 (stereo not drawn) | 8.97
48 | CCN(CC(=O)N1CCCCCC1)S(=O)(=O)c1ccc(C)cc1 | 9.33
49 | COc1cccc(CN2CCN(Cc3nc4c(s3)CCCC4)CC2CCO)c1 (stereo not drawn) | -48.5
50 | O=C1OC(c2ccccc2)=C/C1=C\N1CCOCC1 | 3.53
51 | COc1ccc(NC(=O)CSc2nnc(-c3cc(C)[nH]n3)n2N)cc1OC | 20.2
52 | CCOc1ccc(C(=O)Nc2ccc(S(=O)(=O)NCC3CCCO3)cc2)cc1OCC (stereo not drawn) | 14.5
53 | COc1cc2cc(CN(CCc3cccc(C)c3)C(=S)NCCCN(C)C)c(=O)[nH]c2cc1OC | -1.74
54 | Cc1cc(NC(=O)CN2C(=O)NC(C)(CCc3ccccc3)C2=O)no1 (stereo not drawn) | -1.81
55 | C#CCOCCOCCOCCNc1nc(N2CCN(C(=O)[C@H]([C@@H](C)CC)n3cc(CCC(=O)O)nn3)CC2)nc(N2CCN(C(=O)[C@H](C)n3cc(CCC[NH+]=C(N)N)nn3)CC2)n1.[Cl-] | 6.34
56 | O=C(Cc1ccccc1F)NCC1(N2CCOCC2)CCCCC1 | -2.68
57 | CN(CCN1CCOCC1)Cc1nc(-c2ccc(Cl)cc2)no1 | -28.1
58 | CCOC(=O)c1c(NCc2ccccc2)n[nH]c1C | 5
59 | COc1cc2c(cc1OC)CN(C(=O)CC1CC3CCC1C3)CC2 (stereo not drawn) | -10.1
60 | O=C(NC1CCCCC1)C(c1ccccc1F)N(C(=O)c1csnn1)C1CCCC1 (stereo not drawn) | 2.46
61 | COc1ccccc1Sc1nc(-c2ccccn2)ncc1OC | 12.2
62 | Cc1ccc(S(=O)(=O)N2CCCCC2)cc1NC(=O)CCc1nc2ccccc2c(=O)[nH]1 | -24.3
63 | COc1ccc(C(=O)Nc2ccc(C(=O)O)cc2NC(=O)c2ccc(OC)cc2)cc1 | 18.8

Row | SMILES | hERG current change (%, negative = inhibition) at 10uM [%]
64 | COc1cccc(CN(C)C(=O)c2cc(S(=O)(=O)NC3CCCCC3)ccc2C)c1OC | -4.41
65 | Cc1cc(=O)[nH]c(N/N=C/c2ccc(C)o2)n1 | 4.6
66 | CN(C)C(=O)C(Sc1ccc(S(=O)(=O)N2CCCC2)cn1)c1ccccc1 (stereo not drawn) | -13.4
67 | Cc1ccc2nc(NC(=O)CCn3c(=O)sc4ccccc43)sc2c1 | 1.59
68 | Cc1cccc(-c2nc(CN3CCCC(C(=O)NC4CCC(C)CC4)C3)c(C)o2)c1 (stereo not drawn) | -68.4
69 | CC(C)N1CCc2c(sc(N)c2C#N)C1 | -8.82
70 | CCN1CCN(c2ccc(NC(=O)c3cc4ccccc4cc3OC)cc2C)CC1 | -48.7
71 | N#Cc1c(-c2ccccc2)nc(SCc2cccc(Cl)c2)[nH]c1=O | 8.7
72 | COc1ccc(C(=O)Nc2ccc3nc(N4CCCCC4)cc(C)c3c2)c(OC)c1 | 4.06
73 | O=C(NNC(=S)NCc1ccccc1)c1cccc([N+](=O)[O-])c1 | 14.1
74 | CCCCOc1ccc(/C(O)=C(\C#N)c2nc3ccccc3[nH]2)cc1 | 7.5
75 | O=C(Cn1cc([N+](=O)[O-])cn1)N1CCN(Cc2ccc3c(c2)OCO3)CC1 | -14.2
76 | Cc1ccc2nc(-c3ccccn3)[nH]c2c1.Cl | -1.64
77 | Clc1cccc(OCCN2CCOCC2)c1.O=C(O)C(=O)O | -2.27
78 | O=C(Nc1ncccc1Cl)c1ccccc1F | 3.13
79 | COc1cc(C(C2=C(O)CC(C)(C)CC2=O)C2C(=O)CC(C)(C)CC2=O)cc(OC)c1OC (stereo not drawn) | 14.9
80 | COC(=O)C/C=C/[C@@H](C)[C@@H](/C=N/O[C@H](C)c1cn([C@@H]2COC[C@H]2O)nn1)NS(=O)(=O)c1ccc(C)cc1 | 4.63
81 | NC(=O)C1CC(=O)N(c2ccc(OCC(=O)Nc3ccc(Cl)cc3)cc2)C1 (stereo not drawn) | 3.98
82 | Cc1cccc(-n2cc(CN3CCCN(C=O)CC3)c(-c3cccc(F)c3)n2)c1 | -10.8
83 | CCc1ccc(-c2cc(C)no2)cc1S(=O)(=O)N1CCCN(Cc2ccc(F)cc2)C1 | 5.62
84 | O=C(CN1c2cccc3cccc(c23)S1(=O)=O)N1CCOCC1 | 20.8
